# From PubChem BioAssay AID686971 (National Center for Advancing Translational Sciences (NCATS), 2013)
# In all, about 360,000 compounds went through this assay and about 7,500 (2.1%) were called active. The shares of active, inactive and inconclusive entries below differ from those in the screen. Calls come from the whole dose curve; as a rule, active = well fitted cell-killing curve with a large enough effect; inconclusive = small, poorly fitted or top-dose-only effect, or effect the other way, or another doubt; inactive = no such curve, though single readings can be large or run the other way. Potencies of inconclusive entries are left out as doubtful fits.
# Test: qHTS for induction of synthetic lethality in tumor cells producing 2HG: qHTS for the HT-1080-IDH1KD cell line;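 for activity, negative = toxicity: 0% = DMSO wells and -100% = cell-free medium wells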
# Conditions: HT-1080 IDH1 knockdown viability, ATP luminescence, 48 h; activity, negative = toxicity: at 46.1 µM (top of the series) unless noted
# Outline: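 Luminescent ATP read-out (CellTiter-Glo, 10 min at room temperature) after 48 h compound exposure at 37 °C gave viability of IDH1-knockdown HT-1080 cells. Activity was normalised to DMSO and cell-free wells, then fitted as concentration-response curves.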
# Potency is the fitted concentration of half-maximal effect; tags give direction and shape of the fitted curve.
SMILES,"activity, negative = toxicity",Potency
COc1ccc(C(=O)NC(=O)COC(=O)C2CC2C)cc1 (stereo unspecified),inactive: 19.8%,–
CCN(CC)C(=O)C1=C(C)N(Cc2ccccc2)C(=O)C(CC(=O)NC2CCCC2)C1 (stereo unspecified),inactive: 1.32%,–
C[C@@H]1CN([C@H](C)CO)C(=O)c2c(c3ccccc3n2C)-c2ccccc2CO[C@@H]1CN(C)S(=O)(=O)c1cccs1,–,"inconclusive [cytotoxic, single point]"
CCCc1c(-c2ccc(Cl)cc2)ncn1Cc1ccccc1OC,–,"inconclusive [cytotoxic, single point]"
CCCCN(c1ccccc1)S(=O)(=O)c1cccc(C(=O)Nc2c(C)n(C)n(-c3ccccc3)c2=O)c1,–,"inconclusive [cytotoxic, single point]"
CC(=O)Nc1ccc(-c2ccnc3c2CC(C(=O)NCc2cccc(Cl)c2)O3)cc1 (stereo unspecified),–,active: 1.64 µM
CCCSc1ccc2nc(-c3ccccc3)cn2c1,–,active: 11.6 µM
COCc1cc(C)nc(OCC(=O)N/N=C/c2ccc(C)cc2)c1C#N,–,"inconclusive [cytotoxic, single point]"
CCOC(=O)c1cc2c(=O)n3ccccc3nc2n(CCOC)c1=NC(=O)c1c(-c2c(F)cccc2Cl)noc1C,–,"inconclusive [cytotoxic, partial curve, poor fit]"
CC(C)(C)c1ccc(OCCn2nc(C(=O)O)c3ccccc3c2=O)cc1,inactive: -14.1%,–
CC(=O)OCC(=O)C1(O)CCC2C3CC(C)C4=CC(=O)C=CC4(C)C3(F)C(O)CC21C (stereo unspecified),inconclusive: 32.6%,–
Oc1ccc(/C=N/Nc2ccc(C(F)(F)F)cn2)cc1O,–,"inconclusive [cytotoxic, single point]"
CC(C)(C)c1cc(C(=O)N/N=C/c2cc3c(cc2Br)OCO3)n[nH]1,–,"inconclusive [cytotoxic, partial curve]"
O=C(CN1CCCC1)N1CCCc2c1c(=O)oc1ccc(OCc3ccccc3)cc21,–,"inconclusive [cytotoxic, single point]"
COc1cc(OC)c(OC)cc1CN1CCCC(C(=O)N2CCCCC2)C1 (stereo unspecified),inactive: 6.81%,–
CN(C)C(=O)c1ccc(N=Nc2c(O)c3ccccc3[nH]c2=O)cc1,–,active: 6.51 µM
COc1cc(/C=N/Nc2nc3ccccc3s2)cc([N+](=O)[O-])c1O,inactive: 4.59%,–
COc1ccc(-c2coc3cc4oc(=O)c5ccccc5c4cc23)cc1F,–,"inconclusive [cytotoxic, full curve]"
COC(=O)c1ccccc1NC(=O)N1CCN(S(=O)(=O)c2ccc(Cl)cc2)CC1,–,"inconclusive [cytotoxic, single point]"
COc1ccc(C(=O)NCC(=O)N/N=C(C)\C=C\c2ccccc2)cc1OC,inactive: -1.08%,–
Cc1cc(Cl)ccc1OCC(=O)NCc1ccncc1,inactive: 9.81%,–
COc1ccc([N+](=O)[O-])cc1N(CC1CO1)S(=O)(=O)c1ccc(C)cc1 (stereo unspecified),–,"inconclusive [cytotoxic, partial curve]"
Cc1nc2c(C)cccc2cc1C(=O)N/N=C/c1cccnc1,–,"inconclusive [cytotoxic, single point]"

SMILES,"activity, negative = toxicity",Potency
CCOc1cc(/C=N/Nc2nn3cnnc3c3ccccc23)ccc1O,–,"inconclusive [cytotoxic, single point]"
COc1cccc(CN2CCC2(C)C(=O)NCc2cccc(C(F)(F)F)c2)c1OC (stereo unspecified),–,"inconclusive [cytotoxic, single point]"
COc1ccc(S(=O)(=O)N2CCc3ccccc32)cc1NC(C)=O,–,"inconclusive [cytotoxic, single point]"
Oc1cccc(C(O)CNCc2ccc(OCc3ccc(Cl)cc3Cl)cc2)c1 (stereo unspecified),–,active: 16.4 µM
CCOC(=O)C(Cc1ccc(O)cc1)Nc1nc2ccccc2o1 (stereo unspecified),inactive: -1.86%,–
COc1cc(NC(=S)N2CCN(C/C=C/c3ccccc3)CC2)cc(OC)c1,inactive: -23.7%,–
Cc1nn(C)c(C)c1NS(=O)(=O)c1ccc(N2CCCC2=O)cc1,–,"inconclusive [cytotoxic, single point]"
CCOc1c(OC)ccc2c3c(c(=O)oc12)CCCC3,–,"inconclusive [cytotoxic, single point]"
CC(C(=O)NCC(=O)Nc1ccc(F)c(F)c1F)N1CCN(c2ccc(O)cc2)CC1 (stereo unspecified),–,"inconclusive [cytotoxic, single point]"
Cc1c(C(O)CN2CCN(Cc3ccc4c(c3)OCO4)CC2)c2ccccc2n1C (stereo unspecified),–,active: 11.2 µM
COc1ccc2oc(C(=O)OCC(=O)N3CCC(C)CC3)c(C)c2c1,inactive: -2.52%,–
O=S(=O)(c1ccc2ccccc2c1)N1CCN(c2ccc(O)cc2)CC1,–,"inconclusive [cytotoxic, single point]"
CC(=O)Nc1ccc(C(=O)N2CCN(S(=O)(=O)c3ccc4c(c3)OCCCO4)CC2)cc1,inactive: -0.146%,–
COc1ccc(C(C)=O)cc1CC1(C)C(=O)Nc2ccc(-c3cccc(C(F)(F)F)c3)cc21 (stereo unspecified),–,"inconclusive [cytotoxic, single point]"
S=c1cn[nH]c2ccccc12,inactive: 1.81%,–
COc1ccccc1-c1ccc2c(c1)C(C)(Cc1cccc(F)c1)C(=O)N2 (stereo unspecified),–,"inconclusive [cytotoxic, single point]"
C=CCOC(=O)Nc1snnc1C,inactive: 9.32% [at 9.24 µM],–
CC1=CC(C)(C)n2c(O)c(C3=NC(=S)NC3=O)c3cc(OC(=O)c4cccc5ccccc45)cc1c32,–,"inconclusive [cytotoxic, full curve, poor fit]"
COc1ccccc1Cc1c(-c2ccc(C)cc2)nc2c(C)cc(Br)cn12,–,"inconclusive [cytotoxic, single point]"
Clc1ccc(C2=Nn3c(nnc3-c3n[nH]c4c3CCC4)SC2)cc1,–,active: 5.8 µM
CCC(C)(C(=O)Nc1c(C)cccc1C)N(C)C(=O)c1ccc2ccccc2n1 (stereo unspecified),inactive: 15.6%,–
CCOC(=O)c1ccc(NC(=S)Nc2cccc(N)n2)cc1,–,"inconclusive [cytotoxic, single point]"
Cc1onc(NC(=O)NC(=O)c2ccccc2F)c1Br,inactive: 20.3%,–
